# Measurements as given in PubChem BioAssay AID2451 (National Center for Advancing Translational Sciences (NCATS), 2010).
# About 2,100 (0.72%) of roughly 290,000 compounds were called active. The shares of active, inactive and inconclusive entries below differ from those in the screen. Calls come from the whole dose curve; as a rule, active = well fitted inhibition curve with a large enough effect; inconclusive = small, poorly fitted or top-dose-only effect, or effect the other way; inactive = flat fitted curve, though single readings scatter. Potencies of inconclusive entries are doubtful fits and often do not repeat.
# Molecular target: Fructose-bisphosphate aldolase (Giardia intestinalis (strain ATCC 50803 / WB clone C6)) (UniProt A8B2U2)
# Experiment: qHTS Assay for Inhibitors of Fructose-1,6-bisphosphate Aldolase from Giardia Lamblia; note: nearly all actives have a fitted effect of over 55% in size
# Conditions: purified Giardia FBPA; activity, negative = inhibition: at 59.6 µM (top of the series) unless noted
# Outline: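 Giardia FBPA (40 nM reagent) was preincubated 10 min at RT with compound (up to 57.5 uM final), then substrate plus GAPDH/TPI/NAD/arsenate coupling system with diaphorase/resazurin was added; resorufin fluorescence (525/598 nm) was read after 20 min.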
# % is set by controls: 0 for no effect and ±100 for the full control effect; potency is the fitted concentration of half-maximal effect; tags give direction and shape of the fitted curve.
# Sequence of UniProt A8B2U2 (A8B2U2 whole entry, looked up): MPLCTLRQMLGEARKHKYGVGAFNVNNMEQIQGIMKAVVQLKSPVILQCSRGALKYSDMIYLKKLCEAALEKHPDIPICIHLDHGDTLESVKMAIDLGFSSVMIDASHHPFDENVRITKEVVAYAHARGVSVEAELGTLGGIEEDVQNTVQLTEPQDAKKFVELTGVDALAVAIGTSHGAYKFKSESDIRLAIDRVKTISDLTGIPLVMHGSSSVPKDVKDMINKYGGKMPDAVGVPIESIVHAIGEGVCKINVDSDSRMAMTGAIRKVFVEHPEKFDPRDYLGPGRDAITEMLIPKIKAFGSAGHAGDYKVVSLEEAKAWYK
SMILES,"activity, negative = inhibition",Potency
COc1ccc(/C=C2\SC(=S)N(CCC(=O)Nc3ccc(O)cc3)C2=O)cc1,inconclusive: 35% [activator],
CCOC(=O)c1cc(-c2ccccc2)sc1NC(=O)C(C)Sc1nnc(C)s1 (stereo not given),inactive: 0.267%,
CC(=O)NNC(=S)NC(=O)c1cccc([N+](=O)[O-])c1,,"inconclusive: 3.97 µM [inhibitor, single point]"
CC(C)OCCCNC(=O)c1c(N)n(Cc2cccs2)c2nc3ccccc3nc12,,"inconclusive: 6.29 µM [inhibitor, partial curve]"
N#Cc1ccc(N=c2ssnc2Cl)cc1,,active: 15.8 µM
CCCCNC(=S)Nc1cccc2cnccc12,,"inconclusive: 17.7 µM [inhibitor, single point]"
N#C/C(=C/c1ccc(F)cc1)S(=O)(=O)c1ccccc1,,"inconclusive: 19.9 µM [inhibitor, partial curve]"
Cc1ccc(S(=O)(=O)CCc2nnc(NC(=O)c3ccccn3)s2)cc1,,"inconclusive: 35.4 µM [activator, single point]"
Nc1ccc(S(N)(=O)=O)cc1N,,"inconclusive: 2.81 µM [inhibitor, full curve, poor fit]"
CCOc1ccc(NC(=O)CN(C)C(=O)c2cccnc2Sc2ccc(C)c(C)c2)cc1OCC,,"inconclusive: 28.2 µM [inhibitor, single point]"
COc1ccc(NC(=O)c2cc(Br)c(Br)s2)cn1,,"inconclusive: 17.7 µM [inhibitor, single point]"
O=c1[nH]c2c(s1)C(c1ccco1)C1C3CCC(C3)C1S2 (stereo not given),,"inconclusive: 4.46 µM [inhibitor, full curve]"
Cc1cc(C)c2c(c1)-c1c(ssc1=S)C(C)(C)N2C(=O)CN1C(=O)c2ccccc2C1=O,inactive: -4.31%,
CC(=O)Nc1c(C)nn(-c2ccc(C)c(C)c2)c1C,inactive: 4.17%,
CCCC(=O)NC(c1ccco1)c1cc(Cl)c2cccnc2c1O (stereo not given),,"inconclusive: 19.9 µM [activator, single point]"
CCOc1ccc2c(c1)n(CO)c(=S)n2CO,,"inconclusive: 15.8 µM [inhibitor, partial curve]"
O=C1N=c2ccccc2=C1c1sc(Nc2ccc(O)cc2)nc1O,,"inconclusive: 15.8 µM [inhibitor, partial curve]"
COc1ccc(NC(=S)Nc2ccc3nccnc3c2)cc1,,"inconclusive: 3.97 µM [inhibitor, full curve]"
O=C1CC(c2ccccc2)CC(O)=C1C=NCc1ccccc1Cl (stereo not given),inactive: -20.5%,
COc1ccccc1N1CCN(Cc2cc3c(cc2[N+](=O)[O-])OCO3)CC1,,"inconclusive: 39.8 µM [inhibitor, single point]"
